Measured values taken from article PMC4336329 (PLoS ONE, 2015).
Out of some 310,000 compounds screened, about 14,000 (4.5%) showed an effect of 50% or more. Effects have a minus sign here. This is one part of the list.

Target: human ether-à-go-go-related gene (hERG) potassium channel (human, UniProt Q12809)
Test: primary screen, population patch clamp on CHO cells stably expressing hERG
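Also: peak tail current of the secondary pulse compared with the same well before compound.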

Sequence of human ether-à-go-go-related gene (hERG) potassium channel (Q12809 whole entry, looked up): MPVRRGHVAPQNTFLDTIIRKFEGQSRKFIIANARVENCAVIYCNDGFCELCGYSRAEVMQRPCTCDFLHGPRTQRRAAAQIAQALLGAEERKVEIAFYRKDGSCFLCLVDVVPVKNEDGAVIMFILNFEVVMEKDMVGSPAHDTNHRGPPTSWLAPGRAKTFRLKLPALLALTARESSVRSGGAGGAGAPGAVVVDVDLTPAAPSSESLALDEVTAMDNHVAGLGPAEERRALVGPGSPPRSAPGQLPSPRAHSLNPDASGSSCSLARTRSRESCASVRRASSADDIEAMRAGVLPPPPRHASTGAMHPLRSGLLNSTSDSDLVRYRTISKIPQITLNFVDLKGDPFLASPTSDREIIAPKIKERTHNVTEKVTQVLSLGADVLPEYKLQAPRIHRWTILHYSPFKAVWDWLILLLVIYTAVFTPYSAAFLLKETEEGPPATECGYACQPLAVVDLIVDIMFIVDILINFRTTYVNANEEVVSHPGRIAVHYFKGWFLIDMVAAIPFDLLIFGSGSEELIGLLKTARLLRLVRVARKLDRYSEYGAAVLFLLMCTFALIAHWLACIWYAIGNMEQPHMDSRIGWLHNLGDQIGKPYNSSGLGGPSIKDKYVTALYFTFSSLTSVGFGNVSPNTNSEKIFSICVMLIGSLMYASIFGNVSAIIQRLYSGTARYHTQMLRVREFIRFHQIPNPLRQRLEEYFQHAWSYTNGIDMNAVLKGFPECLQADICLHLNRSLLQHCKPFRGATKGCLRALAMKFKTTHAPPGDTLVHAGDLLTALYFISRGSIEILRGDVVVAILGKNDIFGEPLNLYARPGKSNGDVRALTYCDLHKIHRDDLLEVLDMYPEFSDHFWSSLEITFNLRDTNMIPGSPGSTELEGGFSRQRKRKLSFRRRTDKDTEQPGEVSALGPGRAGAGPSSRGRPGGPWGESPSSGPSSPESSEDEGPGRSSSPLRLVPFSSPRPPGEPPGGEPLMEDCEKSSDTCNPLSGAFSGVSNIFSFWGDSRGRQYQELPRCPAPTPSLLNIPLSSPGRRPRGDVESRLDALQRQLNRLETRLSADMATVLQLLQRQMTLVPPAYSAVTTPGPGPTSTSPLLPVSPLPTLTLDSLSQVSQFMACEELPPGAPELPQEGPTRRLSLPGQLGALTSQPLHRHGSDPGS

| Structure (SMILES) | hERG current change (%, negative = inhibition) at 10uM [%] |
| --- | --- |
| C/C(=N\O)C1(C)N(O)C(C)(C)C(c2ccc(Br)cc2)=[N+]1[O-] (stereo not drawn) | 3.24 |
| CCCCNC(=O)Oc1cccc(N2CCCC2=O)c1 | 4.02 |
| O=C(Nc1ccc2[nH]ccc2c1)c1ccc(F)cc1 | 6.55 |
| COC(=O)c1ccc(N(CC(=O)NC2CCCC2)C(=O)CNC(=O)c2cccs2)cc1 | -7.76 |
| Cc1c(-c2ccc(F)cc2)nc(N)c(C#N)c1-c1cccs1 | 1.48 |
| COc1ccc(CCC(=O)NNC(=O)Nc2ccc(OC)c(OC)c2)cc1 | 3.33 |
| COc1ccccc1/C=C/C(=O)NC(=S)Nc1ccccn1 | 20.6 |
| CCOc1cc(CNn2nnnc2N)ccc1OCC(=O)NC(C)(C)C | 1.14 |
| CCOC(=O)c1[nH]c2ccccc2c1NC(=O)CC(C)(C)C | -17.2 |
| COc1ccc(CNC(=O)[C@H](C)NC(=O)C2CC(=O)N(c3ccc4c(c3)OCO4)C2)cc1 (stereo partly drawn) | 10.1 |
| O=C1CN(C(=O)COC(=O)CCCOc2ccccc2)c2ccccc2N1 | -9.99 |
| CCCc1cc(=O)[nH]c(SCCOc2ccc(Cl)cc2)n1 | 5.26 |
| CC(C)CCn1cnc2c(cnn2-c2ccc(Cl)cc2)c1=O | 3.53 |
| COc1cc2c(cc1OC)CN(c1ccc3ccccc3n1)CC2 | 13.1 |
| Cc1ccc(-c2csc(NC(=O)c3ccc(S(=O)(=O)N4CCc5ccccc54)cc3)n2)cc1 | 20.1 |
| O=C1Nc2ccccc2/C1=C/c1cnc(-c2ccccc2)[nH]1 | 26.2 |
| O=C(CN1C(=O)c2ccccc2S1(=O)=O)NCc1cccnc1 | -2.53 |
| Cc1ccsc1C=Nc1c(C)n(C)n(-c2ccccc2)c1=O | 13.8 |
| COc1ccc(CCN(C)CC(O)COc2ccc(C(C)=O)cc2OC)cc1OC (stereo not drawn) | -21.6 |
| CCc1ccc(Cn2nnc(C(=O)Nc3cccc(C)c3)c2N)cc1 | 9.6 |

| Structure (SMILES) | hERG current change (%, negative = inhibition) at 10uM [%] |
| --- | --- |
| O=C(NNC(=O)c1sccc1-n1cccc1)c1cccc(Cl)c1 | 5.3 |
| CCCCN(C(=O)Nc1ccccc1)C1CCS(=O)(=O)C1 (stereo not drawn) | -11 |
| Cc1cccc(Nc2nc(Cl)ncc2F)c1C | 0.842 |
| Cc1ccc(NC(=O)CCC(=O)c2cccs2)cc1F | 2.31 |
| Cn1c(SCC(=O)NC2CCCC2)nnc1-c1cccs1 | 13.5 |
| COc1ccccc1-n1c(O)c(C=Nc2c(C)n(C)n(-c3ccccc3)c2=O)c(=O)[nH]c1=O | 3.41 |
| Cc1nnc2sc(SCc3ccc(Cl)cc3)nn2c1=O | -14.9 |
| CCOC(=O)c1cc(S(=O)(=O)N2CCN(C3CCCCC3)CC2)cn1C | 12.7 |
| COc1ccc(-c2nc3cccc(C)n3c2NCC2CCCO2)cc1O.Cl (stereo not drawn) | -5.6 |
| CCCN(C(=O)Cc1csc(-c2ccccc2)n1)C1CCS(=O)(=O)C1 (stereo not drawn) | -2.9 |
| CCOC(=O)N1CCC(Nc2c(NCCCOC)c(=O)c2=O)CC1 | 8.44 |
| COc1ccc(C2C(C(C)=O)=C(O)C(=O)N2c2ccc(O)cc2)cc1 (stereo not drawn) | 13.6 |
| CCC(C)C(=O)Nc1cc(OC)c(OC)cc1C(=O)O (stereo not drawn) | -5.85 |
| CCCNC(=O)N1CCN(Cc2ccco2)CC1 | 11.2 |
| C=CCn1c(SCCC#N)nnc1-c1ccncc1 | -4.28 |
| CCCCn1c(=O)c2ccccc2n2c(=S)[nH]nc12 | 6.17 |
| Cn1cccc1Cc1nnc(SCC(=O)Nc2cccc(F)c2)n1CCc1ccccc1 | -20.3 |
| Cc1ccc(Sc2c([N+](=O)[O-])c(=O)n(C)c3ccccc23)cc1 | 17.3 |
| CN(C)CCOc1ncnc2c1oc1ccccc12 | -13.5 |
| CC(=O)Nc1cccc(OCC(=O)NC(C)c2ccc3ccccc3c2)c1 (stereo not drawn) | 10.2 |

| Structure (SMILES) | hERG current change (%, negative = inhibition) at 10uM [%] |
| --- | --- |
| CCCCN(C(=O)c1ccc(S(=O)(=O)N(C)C)cc1)c1nc2ccccc2s1 | 11.8 |
| Cc1cccc(NC(=O)C2C3C=CC(O3)C2C(=O)O)c1C (stereo not drawn) | 15.8 |
| O=C(Nc1cccnc1)c1cc(-c2ccc(F)cc2)on1 | 10.9 |
| Br.O=C(CN1C2=NCCCN2c2ccccc21)c1cccc(Br)c1 | -71 |
| CCN1CCCC1CNC(=O)C(=O)NCCc1ccc(OC)c(OC)c1 (stereo not drawn) | -1.49 |
| Cc1c(Cl)cccc1NC(=O)CSc1ncnc2c1cnn2CCc1ccccc1 | 13.9 |
| Cc1cc(C)c(NC(=O)CSc2nc3ncc(Br)cc3[nH]2)c(Cl)c1 | 21 |
| O=S1(=O)C=CC(N2CCOCC2)C1 (stereo not drawn) | -13.2 |
| Cc1cc(C)n2c(Br)c(CN3CC4CC(C3)c3cccc(=O)n3C4)nc2n1 (stereo not drawn) | 0.651 |
| COc1ccc(OCCCN2CCc3ccccc3C2)cc1.Cl | -47.5 |
| CC(=O)Nc1ccc(S(=O)(=O)NCc2ccc(C)n2C)cc1 | 22.1 |
| CC1(C)CC(=O)C2=C(C1)Nc1ccccc1NC2c1ccc([N+](=O)[O-])cc1 (stereo not drawn) | -35.6 |
| CN1CCN(c2ccc(S(=O)(=O)N3CCCCC3)cc2NC(=O)COc2ccc(F)cc2)CC1 | -75.2 |
| O=C(O)Cc1sc(Nc2ccc(F)cc2)nc1-c1cccs1 | 15.3 |
| O=S(=O)(Nc1ccccn1)c1ccc(Br)cc1 | -2.97 |
| Cc1ccc(S(=O)(=O)N2CCC(C(=O)NCc3ccncc3)CC2)cc1 | -9.15 |
| Cc1nn(C)c(C)c1N=Cc1c(O)ccc2ccccc12 | 12.9 |
| CC1CCCCN1CC(=O)Nc1sccc1C#N (stereo not drawn) | -13.2 |
| CCOC(=O)N1CCN(c2cccc(C)c2C)CC1 | -2.36 |
| COc1ccccc1CNS(=O)(=O)c1ccc(Cl)s1 | -6.4 |
